± gives the standard deviation of the averaged measurements. Over roughly 33,000 sequences, “E-score (dimensionless, -0.5 to 0.5)” has its median near -0.049; the highest 2% begin near 0.37. This is one part of the list.
test system: T1, PmTbr T-box DNA-binding domain (GST fusion); experiment: PBM E-score of 8-mer (E-score (dimensionless, -0.5 to 0.5)); Tbr is Tbrain of the sea star Patiria miniata (Pm) or the sea urchin Strongylocentrotus purpuratus (Sp); higher = stronger binding preference; most listed sequences are background and not binding sites; conditions: the construct has about 5 more residues each side
T1 sequence: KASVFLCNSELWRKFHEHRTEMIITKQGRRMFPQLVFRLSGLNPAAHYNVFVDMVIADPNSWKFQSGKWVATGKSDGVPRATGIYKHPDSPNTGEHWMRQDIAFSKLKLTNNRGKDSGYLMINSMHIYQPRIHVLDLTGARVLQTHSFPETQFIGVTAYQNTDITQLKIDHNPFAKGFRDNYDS
Procedure, shortened: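 GST-fused Tbr T-box DNA-binding domains (the whole T-box plus about five flanking residues) were expressed in BL21 E. coli at 20 °C and purified by glutathione affinity chromatography. Universal Agilent oligonucleotide arrays were made double-stranded by primer extension, incubated with 200 nM protein in PBS (pH 7.5), then scanned and quantified. Every ungapped 8-mer was scored from probe intensities. The Universal PBM Analysis Suite gave each word an enrichment E-score, averaged over duplicate arrays.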

| Sequence | PBM E-score of 8-mer |
| --- | --- |
| ATCTCATC | -0.0393 ± 0.011 |
| AAGGACTT | -0.228 ± 0.067 |
| CATGGTTA | -0.15 ± 0.018 |
| CGAACCCA | -0.0821 ± 0.017 |
| AAACTCTC | -0.00208 ± 0.031 |
| CTGTACGA | -0.254 ± 0.0088 |
| AGTGTGAG | 0.4585 ± 0.0031 |
| CGCCACCG | 0.126 ± 0.059 |
| CAAATCCA | 0.0518 ± 0.015 |
| ATTGGCGA | 0.156 ± 0.027 |
| GTTTAGGA | -0.28 ± 0.0054 |
| AAGGGTCT | -0.305 ± 0.043 |
| CTTGGATA | 0.0665 ± 0.026 |
| ACCAGTAG | -0.205 ± 0.061 |
| AATCACCT | 0.311 ± 0.017 |
| AGAGCGGA | -0.175 ± 0.012 |
| AGCAGAGC | -0.213 ± 0.11 |
| AGGACGTC | -0.149 ± 0.034 |
| CCTCTAAA | -0.167 ± 0.0043 |
| AGCATCTC | -0.0162 ± 0.0012 |
| ACAATGCC | -0.11 ± 0.052 |
| ATAAAGGG | -0.378 ± 0.031 |

| Sequence | PBM E-score of 8-mer |
| --- | --- |
| GCCTTGCA | 0.0561 ± 0.089 |
| GCACAAAA | 0.0487 ± 0.028 |
| CTCGCAAA | 0.118 ± 0.012 |
| GTCCCTAA | -0.182 ± 0.0029 |
| GACTGTAC | -0.379 ± 0.03 |
| ACCCTCTC | 0.197 ± 0.028 |
| CACCATCG | 0.232 ± 0.011 |
| CCTGGGAA | -0.14 ± 0.058 |
| CCGATTCG | -0.0584 ± 0.08 |
| ACGGTCAA | -0.225 ± 0.065 |
| ATAACCCG | -0.072 ± 0.06 |
| AACGATAA | -0.058 ± 0.085 |
| CATTACGA | -0.181 ± 0.0071 |
| CGTCATCC | -0.00112 ± 0.0046 |
| AAAGGATC | -0.159 ± 0.009 |
| CCTGATCA | -0.00924 ± 0.015 |
| AGTGCACG | -0.0285 ± 0.048 |
| CGATTGCC | -0.0231 ± 0.013 |
| CGCCGCAA | -0.0674 ± 0.0034 |
| ACTTGACT | 0.215 ± 0.013 |
| CGCTCCTA | -0.0357 ± 0.017 |
| AGGTTTTA | -0.101 ± 0.068 |

| Sequence | PBM E-score of 8-mer |
| --- | --- |
| CAATATGC | 0.0393 ± 0.036 |
| ATCGCGTC | 0.119 ± 0.025 |
| AGCAAAAG | -0.184 ± 0.071 |
| CCTAGAAA | 0.0138 ± 0.071 |
| CTCGATAC | -0.2 ± 0.015 |
| AAGTGTAT | 0.019 ± 0.037 |
| CCTATCAA | -0.00522 ± 0.045 |
| CAGCGGCG | 0.0451 ± 0.0026 |
| CGCAGGAA | -0.0564 ± 0.03 |
| TACTTAAA | -0.246 ± 0.057 |
| AACGCTGA | 0.0543 ± 0.009 |
| TGTAAAAA | 0.0111 ± 0.14 |
| CAGGATGA | -0.185 ± 0.013 |
| ATGCGTTC | -0.317 ± 0.087 |
| AACTAGCT | 0.0609 ± 0.033 |
| GAACGGCC | -0.0495 ± 0.0031 |
| ATCGGAGA | -0.102 ± 0.012 |
| AGTGCTAG | 0.358 ± 0.0077 |
| AAACAGGG | -0.081 ± 0.025 |
| ACCCCGAA | 0.0114 ± 0.054 |
| AAGTCCTA | -0.163 ± 0.052 |
| ACGCTTGC | 0.193 ± 0.011 |

| Sequence | PBM E-score of 8-mer |
| --- | --- |
| AAAGACGC | -0.0553 ± 0.012 |
| GTGAACAA | 0.226 ± 0.037 |
| AATCTGTC | 0.214 ± 0.018 |
| ACGATACA | 0.0549 ± 0.027 |
| ACTACCCC | -0.232 ± 0.063 |
| TATCTCCA | -0.251 ± 0.012 |
| CTATACAC | -0.144 ± 0.038 |
| CCTGCCAA | 0.158 ± 0.0047 |
| AGAGGACG | -0.109 ± 0.059 |
| CTACTTGC | 0.139 ± 0.013 |
| GGGTGGGA | 0.237 ± 0.011 |
| AGAAGGCG | 0.25289 ± 0.00013 |
| CTGGATCC | -0.081 ± 0.038 |
| GAACTCTC | -0.116 ± 0.072 |
| AATACGGT | -0.0679 ± 0.021 |
| GATCCTTA | -0.204 ± 0.064 |
| ACACGCAT | 0.186 ± 0.035 |
| CACCAAAC | 0.326 ± 0.051 |
| ATTACTTG | -0.00346 ± 0.044 |
| ATGCGCTG | -0.097 ± 0.077 |
